Measurements as given in PubChem BioAssay AID686979 (National Center for Advancing Translational Sciences (NCATS), 2013).
The campaign covered roughly 420,000 compounds. About 50,000 (12%) were called active. The inconclusive results got no clear call from the source; some entries with a clear call stand among them for comparison. Calls follow the shape of the dose curve; as a rule, active = well fitted inhibition curve with a large enough effect; inconclusive = small, poorly fitted or top-dose-only effect; inactive = flat fitted curve, though single readings scatter. No potency is given beside an inconclusive call; the fits are too rough.

Assay: qHTS for Inhibitors of human tyrosyl-DNA phosphodiesterase 1 (TDP1): qHTS in cells in presence of CPT; also: nearly all actives have a fitted effect of over 55% in size
Details: chicken DT40 Tdp1-/-;hTDP1 cells + 20 nM CPT, ATP luminescence, 48 h; activity change, negative = growth inhibition: at 46.2 µM (top of the series) unless noted
How it was run: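 Cell growth measured by CellTiter-Glo luminescence after a minimum 48 h, 37 C compound exposure with 20 nM CPT in Tdp1-knockout DT40 cells stably expressing hTDP1, seeded 400/well; qHTS titration format.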
% is scaled to controls: 0 for no effect and ±100 for the full control effect; potency is read from the fitted curve at half-maximal effect; tags tell the direction and shape of the fitted curve.

Q: With `Cc1cccc(S(=O)(=O)NC(=O)C2(C)CCN2C(=O)Cc2ccc(Cl)cc2Cl)c1` (centres undefined) as the molecule, how does the “activity change, negative = growth inhibition” value read?
A: The value was inactive: 3.28%.

Q: Which Potency does the source give for `CC(C)N(C(=O)COC(=O)c1ccccc1C(=O)c1ccc(Cl)c([N+](=O)[O-])c1)C(C)C` here?
A: Its Potency is inconclusive [inhibitor, single point].

Q: With `Cn1c(N2CCN(C(c3ccccc3)c3ccccc3)CC2)nc2ccccc21` as the molecule, how does the Potency read?
A: The Potency was inconclusive [inhibitor, single point].

Q: Which Potency does the source give for `CC(C)CNS(=O)(=O)c1ccc(CCC(=O)NCCC2=CCCCC2)cc1` here?
A: Its Potency is inconclusive [inhibitor, single point].

Q: Which activity change, negative = growth inhibition does the source give for `CS(=O)(=O)N1CCCC(C(=O)Nc2ccccc2Cl)C1` (centres undefined) here?
A: Its activity change, negative = growth inhibition is inconclusive: -31.5% [inhibitor].

Q: For `CC1=NNC(=O)C1CC(=O)N/N=C/C=C/c1ccccc1` (centres undefined), which “activity change, negative = growth inhibition” value is on record?
A: The value was inactive: -9.94%.

Q: Which Potency does the source give for `CC(C)(C)c1ccc(C(=O)CCCN2CCC(OC(c3ccccc3)c3ccccc3)CC2)cc1` here?
A: Its Potency is active: 11.9 µM.

Q: Which Potency does the source give for `CCCCCCN1C(=O)CC(NC(=O)OCC2c3ccccc3-c3ccccc32)C/C=C\C1C(C)C` (centres undefined) here?
A: The Potency was active: 23.1 µM.

Q: Which Potency does the source give for `CCCCNC(=O)c1nc(C2CCN(S(=O)(=O)c3ccc(OC(F)(F)F)cc3)CC2)oc1-c1ccccc1` here?
A: The Potency was active: 7.31 µM.

Q: Which Potency does the source give for `COc1cccc(NS(=O)(=O)c2ccc3c(c2)n(C)c(=O)c(=O)n3C)c1` here?
A: The Potency was inconclusive [inhibitor, single point].

Q: For `O=C(NCc1ccccc1Br)c1cccs1`, which Potency is on record?
A: The Potency was inconclusive [inhibitor, partial curve].

Q: With `O=C(Nc1cccc(S(=O)(=O)N2CCOCC2)c1)c1cc(=O)[nH]c2ccccc12` as the molecule, how does the “activity change, negative = growth inhibition” value read?
A: The value was inactive: -12.1%.

Q: With `Cc1cc2ncn(/N=C/c3ccc([N+](=O)[O-])o3)c2cc1C` as the molecule, how does the Potency read?
A: The Potency was active: 13 µM.

Q: For `CCN(CC)c1ccc(C(=O)OCC(=O)Nc2cccc(S(=O)(=O)NC3=NCCCCC3)c2)cc1`, which Potency is on record?
A: The Potency was inconclusive [inhibitor, single point].

Q: With `O=Cc1c(N2CCN(CCO)CC2)nc2ccccn2c1=O` as the molecule, how does the “activity change, negative = growth inhibition” value read?
A: Its value is inactive: -9.45%.

Q: Which Potency does the source give for `CCN(CC)S(=O)(=O)c1ccc(C(=O)NCCc2cc3c(OC)ccc(OC)c3[nH]c2=O)cc1` here?
A: The Potency was inconclusive [inhibitor, single point].

Q: For `CSCCC(NC(=O)c1ccccc1)C(=O)N1CCCCCCC1` (centres undefined), which “activity change, negative = growth inhibition” value is on record?
A: Its value is inactive: 6.01%.

Q: Which Potency does the source give for `CC(C)NC(=O)N(C)C[C@H]1Oc2c(NC(=O)Nc3ccc(C(F)(F)F)cc3)cccc2C(=O)N([C@H](C)CO)C[C@@H]1C` here?
A: Its Potency is inconclusive [inhibitor, single point].

Q: Which Potency does the source give for `C=CC[N+]1(CC#CCOC(c2ccccc2)c2ccccc2)CCOCC1` here?
A: Its Potency is inconclusive [inhibitor, partial curve].

Q: Which “activity change, negative = growth inhibition” value does the source give for `Cc1cccc(C)c1NC(=O)CN(C)CC(=O)N(C)CC(=O)Nc1ccccc1Br` here?
A: Its value is inactive: -2.69%.

Q: With `COCCCNC(=O)CSc1nc(-c2ccccc2)[nH]c1-c1ccc(C)cc1` as the molecule, how does the Potency read?
A: Its Potency is inconclusive [inhibitor, single point].

Q: Which Potency does the source give for `CC(=O)Nc1cccc(NC(=O)C2CC(=O)N(c3ccc(C)cc3)C2)c1` (centres undefined) here?
A: Its Potency is inconclusive [inhibitor, single point].

Q: With `CCn1c(=O)cc(SCC(=O)NCCc2ccc(OC)cc2OC)c2ccccc21` as the molecule, how does the Potency read?
A: The Potency was inconclusive [inhibitor, single point].

Q: For `COc1ccc(N2CCN(CC(=O)Nc3cccc(S(=O)(=O)N4CCOCC4)c3)CC2)cc1`, which Potency is on record?
A: The Potency was inconclusive [inhibitor, single point].

Q: With `CCCn1c(=O)c2sccc2n2c(CCCC(=O)Nc3cccc(CC)c3)nnc12` as the molecule, how does the Potency read?
A: The Potency was active: 23.1 µM.

Q: Which Potency does the source give for `CCOC(=O)C1Oc2ccccc2C(c2ccc(C)cc2)=C1C(=O)OC` (centres undefined) here?
A: Its Potency is inconclusive [inhibitor, single point].

Q: Which activity change, negative = growth inhibition does the source give for `COc1ccc(C2CC(=O)C3=C(C2)Nc2ccccc2N(C(=O)CCC(=O)O)C3c2ccc(F)cc2)cc1` (centres undefined) here?
A: Its activity change, negative = growth inhibition is inconclusive: 1.49% [inhibitor].

Q: Which Potency does the source give for `CCOc1ccc(C2c3[nH]c4ccccc4c3CCN2CCCn2cccn2)cc1` (centres undefined) here?
A: Its Potency is inconclusive [inhibitor, single point].

Q: With `COc1ccc2[nH]c(-c3ccccc3)c(CCNC(C)=O)c2c1` as the molecule, how does the Potency read?
A: Its Potency is inconclusive [inhibitor, single point].

Q: For `CCc1cnc2c(c1SCC(=O)Nc1ccc(C)cc1C)c(=O)n(C)c(=O)n2C`, which “activity change, negative = growth inhibition” value is on record?
A: Its value is inactive: -9.38%.

Q: With `Cc1cccc(N2CCCn3c2nc2c3c(=O)n(CCN3CCOCC3)c(=O)n2C)c1` as the molecule, how does the Potency read?
A: The Potency was active: 20.6 µM.

Q: For `CC(=O)N/C(=C/c1ccccc1)c1sc2ccccc2[n+]1CCCCI`, which Potency is on record?
A: Its Potency is active: 20 µM.

Q: With `CN(C(=O)COC(=O)c1ccc(C(C)(C)C)cc1)C1CCS(=O)(=O)C1` (centres undefined) as the molecule, how does the “activity change, negative = growth inhibition” value read?
A: The value was inactive: -1.31%.

Q: For `CCCNC(=O)c1cc(C2CCCCN2C(=O)c2cccs2)on1` (centres undefined), which Potency is on record?
A: The Potency was inconclusive [inhibitor, full curve, poor fit].

Q: Which Potency does the source give for `CN(C)C(CNc1ccc(C(F)(F)F)cn1)c1ccccc1` (centres undefined) here?
A: The Potency was inconclusive [inhibitor, partial curve].

Q: With `O=C1C=C(Nc2ccccc2)C(=O)c2ccccc21` as the molecule, how does the Potency read?
A: The Potency was active: 13 µM.

Q: For `Nc1nnc(CC(=O)N/N=C/c2ccccc2OCc2ccc(F)cc2)s1`, which Potency is on record?
A: The Potency was inconclusive [inhibitor, partial curve, poor fit].

Q: With `CS(=O)(=O)N(CC(=O)N1CCCCCC1)Cc1ccc(Cl)cc1` as the molecule, how does the Potency read?
A: The Potency was inconclusive [inhibitor, single point].

Q: With `C[C@@H]1CN([C@H](C)CO)C(=O)c2cc(C#CC3CCCCC3)cnc2O[C@H]1CN(C)Cc1cccnc1` as the molecule, how does the Potency read?
A: The Potency was inconclusive [inhibitor, single point].

Q: Which Potency does the source give for `CC(=O)Oc1c(Br)cc(N(C(C)=O)S(=O)(=O)c2ccccc2)c2ccccc12` here?
A: The Potency was inconclusive [inhibitor, partial curve, poor fit].

Q: With `Cn1c(=O)c2c(ncn2Cc2cccc(Cl)c2)n(C)c1=O` as the molecule, how does the Potency read?
A: Its Potency is inconclusive [inhibitor, partial curve].

Q: With `Cc1ccc(NC(=O)c2ccc([N+](=O)[O-])s2)cc1S(=O)(=O)N1CCOCC1` as the molecule, how does the Potency read?
A: The Potency was active: 16.4 µM.

Q: For `CCOC(=O)c1ccccc1N1C(=O)CSC1=S`, which Potency is on record?
A: The Potency was inconclusive [inhibitor, single point].

Q: For `O=C(Cn1cc(C(=O)C(=O)N2CCOCC2)c2ccccc21)Nc1cccc(C(F)(F)F)c1`, which Potency is on record?
A: The Potency was inconclusive [inhibitor, single point].

Q: With `NS(=O)(=O)c1ccc(CCNC(=O)c2cccc(S(=O)(=O)N3CCc4ccccc43)c2)cc1` as the molecule, how does the Potency read?
A: The Potency was inconclusive [inhibitor, single point].

Q: With `O=C1Nc2ccc(S(=O)(=O)N(CCO)CCO)c3cccc1c23` as the molecule, how does the “activity change, negative = growth inhibition” value read?
A: The value was inactive: -13.5%.

Q: For `CCOC(=O)C(=O)Nc1cc(C(=O)OC)cc(C(=O)OC)c1`, which “activity change, negative = growth inhibition” value is on record?
A: Its value is inactive: 0.542%.

Q: Which Potency does the source give for `CCN1CCN(c2cc(C)c3cc(NC(=S)NCCN(C)C)ccc3n2)CC1` here?
A: Its Potency is inconclusive [inhibitor, single point].

Q: With `CC(C)N(Cc1cc2ccccc2[nH]c1=O)C(=O)c1ccco1` as the molecule, how does the “activity change, negative = growth inhibition” value read?
A: Its value is inactive: -15.4%.

Q: For `COc1ccc(C(=O)N/N=C(\c2ccccc2)c2ccccn2)cc1`, which Potency is on record?
A: Its Potency is active: 2.91 µM.

Q: For `O=C(CC1C[C@H](C(=O)N2CCCCC2)[C@@]2(CCc3ccccc3)c3[nH]c4ccccc4c3CCN2C1=O)NCCc1ccccn1` (some centres undefined), which Potency is on record?
A: The Potency was active: 23.1 µM.

Q: With `CCc1sc(C(=O)Nc2ccc3c(c2)OCO3)cc1C` as the molecule, how does the “activity change, negative = growth inhibition” value read?
A: Its value is inactive: -2.81%.

Q: With `O=C(NCC1(c2ccccc2)CCCC1)c1ccccc1Br` as the molecule, how does the Potency read?
A: The Potency was active: 16.4 µM.

Q: For `Cc1ccc(-n2ncc3c(NCCCc4ccccc4)ncnc32)cc1C`, which activity change, negative = growth inhibition is on record?
A: The activity change, negative = growth inhibition was inconclusive: -33.5% [inhibitor].

Q: With `Cc1ccc(F)cc1-c1nc(NCC2CC2)nc2ccsc12` as the molecule, how does the Potency read?
A: Its Potency is inconclusive [inhibitor, single point].

Q: With `CC(C)(C)Nc1nc(SCC(=O)Nc2ccccc2)nc(N2CCOCC2)n1` as the molecule, how does the Potency read?
A: The Potency was inconclusive [inhibitor, single point].

Q: For `Cc1ccc(NC(=O)CN2CCc3cc4c(cc3C2)OCCCO4)cc1`, which Potency is on record?
A: Its Potency is inconclusive [inhibitor, single point].

Q: Which activity change, negative = growth inhibition does the source give for `CSCCC(Nc1ncnc2ccc(Br)cc12)C(=O)O` (centres undefined) here?
A: The activity change, negative = growth inhibition was inconclusive: -1.65% [inhibitor].

Q: With `CC1(C)CC(=NNC(=O)c2n[nH]c3c2CCC3)CC(C)(C)N1` as the molecule, how does the Potency read?
A: Its Potency is inconclusive [inhibitor, single point].

Q: For `CCN(CC)C(=O)Cn1cc(S(=O)(=O)CC(=O)Nc2ccc(F)cc2)c2ccccc21`, which “activity change, negative = growth inhibition” value is on record?
A: The value was inactive: -12.1%.

Q: With `Cc1c(NC(=O)c2sc3c([N+](=O)[O-])cccc3c2Cl)cccc1-c1nc2ccccc2o1` as the molecule, how does the Potency read?
A: Its Potency is inconclusive [inhibitor, single point].

Q: Which Potency does the source give for `Cc1ccc(-c2c3c(=O)n(C)c(=O)n(C)c3c3c(C(F)(F)F)nc4ccccc4n23)cc1` here?
A: Its Potency is inconclusive [inhibitor, single point].

Q: Which Potency does the source give for `COc1ccc(NCc2cc3ccccc3[nH]c2=O)cc1` here?
A: The Potency was inconclusive [inhibitor, full curve].

Q: For `O=[N+]([O-])c1ccc2ncnc(N3CCN(Cc4ccc5c(c4)OCO5)CC3)c2c1`, which Potency is on record?
A: The Potency was active: 13 µM.

Q: Which Potency does the source give for `CCCN(Cc1nnc(-c2ccccc2Cl)o1)C(=O)c1oc2ccccc2c1C` here?
A: The Potency was inconclusive [inhibitor, single point].

Q: For `COc1cc(CNC(=O)c2cc3n(n2)CCCN(Cc2ccc(C)cc2)C3=O)cc(OC)c1OC`, which Potency is on record?
A: Its Potency is inconclusive [inhibitor, single point].

Q: Which Potency does the source give for `COC(=O)c1cc2occc2n1Cc1ccc(Cl)cc1` here?
A: The Potency was inconclusive [inhibitor, single point].

Q: For `COc1ccccc1N1CCN(C(=O)c2oc3ccc(Br)cc3c2C)CC1`, which Potency is on record?
A: The Potency was active: 2.91 µM.

Q: For `O=c1ccc(Oc2nc(N3CCCCC3)nc(N3CCCCC3)n2)n[nH]1`, which “activity change, negative = growth inhibition” value is on record?
A: Its value is inactive: -3.26%.
